Measured values taken from PubChem BioAssay AID504332 (National Center for Advancing Translational Sciences (NCATS), 2011).
The campaign covered roughly 350,000 compounds. About 31,000 (8.9%) were called active. Inconclusive means that the source gave no clear call. Such entries were picked first, then a sample of the others. Calls follow the shape of the dose curve; as a rule, active = well fitted inhibition curve with a large enough effect; inconclusive = small, poorly fitted or top-dose-only effect; inactive = no such curve, though single readings can be large or run the other way. A potency beside an inconclusive call is a rough fit, not a confirmed value.

molecular target: Histone-lysine N-methyltransferase EHMT2 (Homo sapiens) (UniProt Q96KQ7); experiment: qHTS Assay for Inhibitors of Histone Lysine Methyltransferase G9a; conditions: G9a H3K9 monomethylation, AlphaScreen, 2 h; activity, negative = inhibition: at 59 µM (top of the series) unless noted; also: nearly all actives have a fitted effect of over 75% in size
UniProt Q96KQ7, sequence (Q96KQ7 whole entry, looked up): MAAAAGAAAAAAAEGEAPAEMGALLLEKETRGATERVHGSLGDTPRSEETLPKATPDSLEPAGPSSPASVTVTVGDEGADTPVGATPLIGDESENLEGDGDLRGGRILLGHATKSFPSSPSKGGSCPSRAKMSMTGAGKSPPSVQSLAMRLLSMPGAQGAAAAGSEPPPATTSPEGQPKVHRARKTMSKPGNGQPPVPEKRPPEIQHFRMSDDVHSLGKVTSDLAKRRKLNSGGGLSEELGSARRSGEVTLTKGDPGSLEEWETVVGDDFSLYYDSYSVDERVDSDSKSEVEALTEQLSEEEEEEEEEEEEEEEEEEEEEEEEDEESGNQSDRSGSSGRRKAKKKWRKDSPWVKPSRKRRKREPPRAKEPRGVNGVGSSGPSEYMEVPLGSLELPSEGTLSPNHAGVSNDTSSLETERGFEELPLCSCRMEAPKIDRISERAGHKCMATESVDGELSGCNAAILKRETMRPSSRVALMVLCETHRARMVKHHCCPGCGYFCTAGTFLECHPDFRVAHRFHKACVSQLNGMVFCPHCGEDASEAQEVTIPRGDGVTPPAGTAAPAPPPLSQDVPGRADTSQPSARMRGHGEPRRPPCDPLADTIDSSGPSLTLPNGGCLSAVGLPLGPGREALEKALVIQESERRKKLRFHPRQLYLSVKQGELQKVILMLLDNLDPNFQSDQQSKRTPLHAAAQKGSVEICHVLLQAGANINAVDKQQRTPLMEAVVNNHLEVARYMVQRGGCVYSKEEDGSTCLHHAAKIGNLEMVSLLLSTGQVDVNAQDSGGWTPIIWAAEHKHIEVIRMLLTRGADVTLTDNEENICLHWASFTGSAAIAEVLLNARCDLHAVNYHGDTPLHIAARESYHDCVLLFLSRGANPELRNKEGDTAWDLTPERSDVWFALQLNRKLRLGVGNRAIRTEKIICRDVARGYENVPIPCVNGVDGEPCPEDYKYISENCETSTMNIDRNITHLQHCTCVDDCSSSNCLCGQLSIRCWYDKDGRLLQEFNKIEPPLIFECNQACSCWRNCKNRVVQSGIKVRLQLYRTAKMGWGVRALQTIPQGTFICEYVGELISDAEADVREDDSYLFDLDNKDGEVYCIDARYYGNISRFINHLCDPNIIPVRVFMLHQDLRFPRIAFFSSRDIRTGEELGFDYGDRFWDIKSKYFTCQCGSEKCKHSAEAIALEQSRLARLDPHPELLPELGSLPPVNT
Outline: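 Using a bead-based AlphaScreen, monomethylated H3K9 product from 2 h room-temperature reactions (G9a 20 nM, peptide 500 nM, SAM 20 uM) was detected with 0.5 ug/mL rabbit anti-H3K9me1 antibody.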
% is scaled to controls: 0 for no effect and ±100 for the full control effect; potency is read from the fitted curve at half-maximal effect; tags tell the direction and shape of the fitted curve.

Structure (SMILES) | Potency | activity, negative = inhibition
COc1ccc(C(CC(=O)NCCCN2CCOCC2)NS(=O)(=O)c2ccc(C)cc2)cc1 (centres undefined) | inconclusive: 100 µM [inhibitor, single point] | –
Nc1c(-c2ccccc2)c(CSc2nc3ccccc3[nH]2)nn1-c1ccc(C(=O)O)cc1 | inconclusive: 79.4 µM [inhibitor, partial curve, poor fit] | –
O=C(COc1ncnc2sccc12)Nc1cccc(S(=O)(=O)N2CCCC2)c1 | inconclusive: 44.7 µM [inhibitor, partial curve, poor fit] | –
CCOc1ccc(S(=O)(=O)N2CCN(C(=O)c3cc(C4CC4)nn3-c3ccccc3)CC2)cc1 | inconclusive: 28.2 µM [inhibitor, full curve, poor fit] | –
Cc1cc2c(cc3c(SCc4ccc(Cl)cc4)nnc(C)n32)o1 | active: 4.47 µM | –
Cc1ccc(C(=O)COC(=O)CN2C(=O)C3C4C=CC(C4)C3C2=O)cc1C (centres undefined) | – | inactive: 20.4% [at 102 µM]
CCC(=O)Oc1c(Sc2ccc(Cl)cc2)c(C)nn1C(C)(C)C | – | inactive: 47.8%
COc1ccc(NC(=O)CSc2oc(-c3ccc(C)cc3)nc2S(=O)(=O)c2ccc(C)cc2)c(OC)c1 | inconclusive: 25.1 µM [inhibitor, single point] | –
CCN(CCCNC(=O)c1cc2cc3cc(OC)ccc3nc2s1)c1cccc(C)c1 | inconclusive: 8.91 µM [inhibitor, full curve] | –
CC(OC(=O)c1cc(=O)[nH]c2ccccc12)C(=O)Nc1ccccc1F (centres undefined) | active: 31.6 µM | –
CSCCC(NS(=O)(=O)c1ccc2c(c1)oc(=O)n2C)C(=O)N1CCN(c2cc(Cl)ccc2C)CC1 (centres undefined) | – | inactive: -27.5%
c1ccc(COc2ccc(CN3CCN(c4ccccn4)CC3)cc2)cc1 | active: 56.2 µM | –
CC1(C)CC(=O)c2sc(NC(=O)c3ccc4ncsc4c3)nc2C1 | inconclusive: 0.891 µM [inhibitor, full curve, poor fit] | –
COc1ccc(NC(=S)NCc2ccc(S(N)(=O)=O)cc2)cc1OC | inconclusive: 70.8 µM [inhibitor, single point] | –
COc1ccc(C(=O)c2ccc([N+](=O)[O-])cc2)cc1S(=O)(=O)N1CCC(C(=O)O)CC1 | inconclusive: 70.8 µM [inhibitor, single point] | –
COc1ccccc1Nc1nnc(SCC(=O)N2CC(=O)Nc3ccccc32)s1 | active: 50.1 µM | –
CN1CCN(c2ccc(NC(=O)c3ccc4c(c3)OCO4)cc2)CC1 | inconclusive: 50.1 µM [inhibitor, partial curve] | –
O=C(O)c1cc(S(=O)(=O)O)cc(Nc2c3ccccc3nc3ccccc23)c1O | active: 17.8 µM | –
C=CCn1c(=N)c(S(=O)(=O)c2ccc(C)c(C)c2)cc2c(=O)n3ccccc3nc21 | – | inactive: -7.6% [at 102 µM]
CCOC(=O)c1cnc2ccccc2c1Nc1ccc2c(c1)OCCO2 | inconclusive: 28.2 µM [inhibitor, single point] | –
Cc1cccc(OCCC(=O)OCC(=O)Nc2c(C)nn(-c3ccccc3)c2C)c1 | active: 35.5 µM | –
O=C(c1ccccc1F)N1CCC(N2CCCCCC2)CC1 | active: 7.08 µM | –
Cc1c(C)c(C)c(S(=O)(=O)Nc2ccc3[nH]c(=O)[nH]c3c2)c(C)c1C | inconclusive: 89.1 µM [inhibitor, single point] | –

Structure (SMILES) | Potency | activity, negative = inhibition
Fc1ccccc1OCCCCSc1ncccn1 | – | inactive: 6.33% [at 0.501 µM]
Cc1ccc(NC(=O)CCc2nc3sc4c(c3c(=O)[nH]2)CCCC4)nc1 | active: 50.1 µM | –
Cc1nn(-c2ccccc2)c(Cl)c1/C=N/Nc1nnc(C)c(=O)[nH]1 | inconclusive: 28.2 µM [inhibitor, partial curve, poor fit] | –
CCOC(=O)c1ccccc1NC(=O)CSc1nc2ncccc2o1 | – | inactive: 2.48%
CC1CN(CCc2ccccc2)c2nc3c(c(=O)[nH]c(=O)n3C)n2C1 (centres undefined) | – | inactive: -19.4% [at 102 µM]
CCCC1(C(=O)OC)NC(c2ccc(OC)c(OC)c2)C2C(=O)N(c3ccc4c(c3)OCO4)C(=O)C21 (centres undefined) | inconclusive: 31.6 µM [inhibitor, single point] | –
CCN1CCN(Cc2c(O)ccc3oc(C)c(C(=O)Nc4ccc(OC)c(Cl)c4)c23)CC1 | – | inactive: -21.5%
O=C(COc1ccc2c(c1)oc(=O)c1ccccc12)NCCCN1CCOCC1 | – | inactive: 6.37%
C=CCn1c(O)c(N=NC(=S)Nc2ccccc2F)c2ccccc21 | active: 11.2 µM | –
Cc1cc(C)cc(NC(=O)CN2C(=O)COc3ccc(S(=O)(=O)Nc4ccccc4)cc32)c1 | – | inactive: -20.9%
CCN1CCCC1CN(Cc1cc2cc(C)ccc2[nH]c1=O)C(=O)Nc1ccccc1OC (centres undefined) | inconclusive: 0.708 µM [inhibitor, full curve, poor fit] | –
COC1(NC(=O)c2ccccc2)C(C)=CC(=O)C=C1C | active: 44.7 µM | –
O=C(Nc1ccc(N2CCC(N3CCCCC3)CC2)c(C(=O)O)c1)c1ccccc1 | – | inactive: -10.8%
Cc1cc2nc3c(=O)[nH]c(=O)[nH]c3nc2c([N+](=O)[O-])c1N | active: 31.6 µM | –
COc1ccc(CNC2CCCc3ccccc32)cc1OC (centres undefined) | inconclusive: 20 µM [inhibitor, single point] | –
Cc1cc(Nc2cccc(C(F)(F)F)c2)ncn1 | inconclusive: 12.6 µM [inhibitor, partial curve] | –
CN(Cc1ccccc1)S(=O)(=O)c1ccc(F)c(C(=O)Nc2ccccc2C(F)(F)F)c1 | inconclusive: 5.62 µM [inhibitor, single point] | –
Cc1ccc(C(NC(=O)Cc2cccs2)C(=O)Nc2ccc(C(C)C)cc2)cc1 (centres undefined) | inconclusive: 6.31 µM [inhibitor, single point] | –
Cc1cccc(-c2nc3c4ccccc4nc(NCc4ccccc4Cl)n3n2)c1 | – | inactive: 55%
CCC(CC)NC(=O)COC(=O)c1cc(SC)ccc1Cl | – | inactive: 12.7% [at 102 µM]
Cc1cc(F)ccc1NC(=O)Cn1c(C)csc1=O | inconclusive: 7.08 µM [inhibitor, single point] | –
Cc1cccc(-c2nc(CS(=O)CC(=O)N3CC(C)CC(C)C3)c(C)o2)c1 (centres undefined) | – | inactive: 4.52% [at 102 µM]
CCCCn1nc(C(=O)Nc2ccc3c(c2)OCCO3)c2ccccc2c1=O | inconclusive: 17.8 µM [inhibitor, single point] | –

Structure (SMILES) | Potency | activity, negative = inhibition
COC(=O)c1ccc2c(=O)[nH]c(CSc3nc(C)cs3)nc2c1 | active: 39.8 µM | –
CCOC(=O)c1c(NC(=O)C(C)Sc2cn(CCNC(=O)c3ccc(OC)c(OC)c3)c3ccccc23)sc2c1CCC2 (centres undefined) | inconclusive: 8.91 µM [inhibitor, single point] | –
O=C(O)CCC(=O)Nc1ccc(Cc2ccc(NC(=O)CCC(=O)O)c(O)c2)cc1O | inconclusive: 100 µM [inhibitor, single point] | –
Nc1c(C(=O)Nc2cccc(Cl)c2)sc2nc3c(cc12)CN(Cc1ccccc1)CC3 | inconclusive: 44.7 µM [inhibitor, partial curve, poor fit] | –
Oc1c(N=NC(=S)Nc2ccccc2F)c2ccccc2n1Cc1ccccc1F | active: 11.2 µM | –
CCc1nnc(NC(=O)CSc2nc3[nH]ncc3c(=O)[nH]2)s1 | inconclusive: 50.1 µM [inhibitor, partial curve] | –
COc1ccc(CC(=O)NC2CC(=O)N(c3ccc4c(c3)OCCO4)C2)cc1 (centres undefined) | – | inactive: 27.8%
COc1ccc(-c2nnc(SC(C)C(=O)NCc3ccc4c(c3)OCO4)n2Cc2ccco2)cc1 (centres undefined) | inconclusive: 89.1 µM [inhibitor, single point] | –
CCOC(=O)c1c(-c2ccc3ccccc3c2)csc1NC(=O)CCCC(=O)O | inconclusive: 89.1 µM [inhibitor, single point] | –
COc1ccc2nc3sc(C(=O)Nc4cc(Cl)c(OC)cc4OC)cc3cc2c1 | inconclusive: 6.31 µM [inhibitor, partial curve, poor fit] | –
O=C(NCN1CCCCC1)c1cnccn1 | inconclusive: 44.7 µM [inhibitor, partial curve, poor fit] | –
O=C(CSc1nncn2c1cc1sccc12)Nc1ccccc1C(F)(F)F | inconclusive: 22.4 µM [inhibitor, partial curve, poor fit] | –
Cc1cccc(CSc2ccc3nnc(-c4cccnc4)n3n2)c1 | – | inactive: -5.32%
Cc1ccc(C(=O)Nc2ccccc2C(=O)NC(Cc2c[nH]c3ccccc23)C(=O)O)cc1 (centres undefined) | – | inactive: 23% [at 12.7 µM]
CC(=O)c1ccccc1OCCn1nc(C(=O)O)c2ccccc2c1=O | inconclusive: 89.1 µM [inhibitor, partial curve, poor fit] | –
CNc1ccc(/C=C(\CCC(=O)O)c2nc3ccccc3s2)cc1[N+](=O)[O-] | inconclusive: 31.6 µM [inhibitor, single point] | –
COc1ccc(N2CCOCC2)c(NC(=O)c2cc3ccccc3o2)c1 | inconclusive: 1 µM [inhibitor, full curve] | –
CCCCN(C)CCNC(=O)C(=O)c1c(C)[nH]c2ccccc12 | inconclusive: 44.7 µM [inhibitor, partial curve, poor fit] | –
COc1ccc(C(=O)NC(NC(=S)Nc2ccc(S(N)(=O)=O)cc2)C(Cl)(Cl)Cl)cc1 (centres undefined) | inconclusive: 44.7 µM [inhibitor, partial curve] | –
COC1(OC)N=C(N)C2(C#N)C(c3ccc(F)cc3)C12C#N (centres undefined) | – | inactive: 24.6% [at 12.7 µM]
O=C(c1ccc(-c2ccc(Cl)cc2)o1)N1CCN(c2ccc([N+](=O)[O-])cc2Cl)CC1 | inconclusive: 4.47 µM [inhibitor, partial curve, poor fit] | –
Cc1ccccc1C(=O)NCC(c1cccnc1)N1CCc2ccccc21 (centres undefined) | – | inactive: 4.87%
C(=C\c1ccco1)/C=N/n1cnnc1 | active: 39.8 µM | –
